# Results reported in the supplement of paper PMC11417369.
# Some of the results follow.
# System: PfHDP1 homeodomain (GST-tagged)
# Experiment: gcPBM binding intensity (ln(normalized median fluorescence intensity)); higher = stronger DNA binding
# Outline: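 For binding intensity, the highest Masliner-normalised natural-log median intensity across replicate spots of either probe orientation was taken. Protein bound to the array was stained with Alexa488 anti-GST antibody and scanned at 488 nm. The protein, GST-tagged P. falciparum DNA-binding domains from E. coli at about 25 μg on average, had been applied for 1 h to an Agilent 4 × 180k array of primer-extended double-stranded 36-bp intergenic genomic probes and negative controls.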
row,Sequence,gcPBM binding intensity (ln)
1,CAATGCTTTATCAATACATGCATATATATAGAAATA [TGCATGCA_site857],6.46
2,TTCTTTTTTCAACACACACACACAAGAAAATATATA [CACACA_site9019],7.1
3,CAAAGAGAAATAAACACACACAAAATAAAGAAAAAA [CACACA_site2245],6.9
4,AAAAAAAAAAAAAAAACACACATATAGATTTATATA [CACACA_site7196],6.64
5,TTTTTTCTATTGAGCACACATATCACGATTAGTACT [CACACA_site313],7.41
6,GCTCAATTTTTGGGTACACACAAATGTATAATAATA [CACACA_site2388],6.72
7,ATATATATTATTTCTACACACATATATATAATATGT [CACACA_site3374],6.9
8,AATTAAATTACTTATACACACATAAAATGCCTGTAT [CACACA_site6597],6.47
9,TTATGATATATTTGTTGTACGCTTTTTTTATGAACT [XGTACX_site573],6.88
10,CATTATGTTGTAAATGCACACATACAAATACATATA [CACACA_site8380],9.89
11,GTAAGTTGTGCATTCACACACATATAAATATAAATA [CACACA_site7536],9.03
12,AACACATACATATATACACACACAAAATAATAAAAT [CACACA_site8724],6.98
13,ATGACCCACTTTTCTGCACACATAAAAAATATATAA [CACACA_site8092],8.54
14,TTAACAAAACTTTTAACACACAAAAAAAAAAAAAAA [CACACA_site6947],6.45
15,CTATAATAATAAAGTGAACACACACCGATAATATAT [CACACA_site9377],6.65
16,ATTTTCAAATTCTATGCATGTGTATATTATAGATAA [TGCATGCA_site1003],6.63
17,AAAATCTATAATATAACACACATATATTCTATATGG [CACACA_site7821],6.29
18,CATACATACAGACACACACACATATAAATACATACA [CACACA_site6533],6.98
19,TTCCTGTTAATTACAACACACAATTCTTATTTTATG [CACACA_site6507],6.99
20,TATAAATAAATGTGTACACACATTAAAATCAAACGT [CACACA_site2340],6.71
21,TTATTTGTATCCATTTCACACATTTTATATAGTATC [CACACA_site5989],6.74
22,TTTTTTGTTATGCGGGTGCATATAATAATGTGATGA,8.99

row,Sequence,gcPBM binding intensity (ln)
1,TTTATCAAAAAAAAAAAAAAAAAAAAAAAAAATTGT [CACACA_negctrl_site176],5.83
2,TTATGTGCTTTAAAAGTGCATTTTTTTTTTTTTTTT,7.57
3,TATATGTTTTATAAATGTACATATACTTAAATATTT [XGTACX_site4753],6.43
4,ACTATTAAGAATAAAGAAATATGTAATTGTATTTAA [CACACA_negctrl_site516],6.08
5,AATACATAATAACGTTGTACAAAAATTATAATACAT [XGTACX_site6508],7.04
6,ATATATGTATGTTAGACACACATATTATAATATGTT [CACACA_site116],6.5
7,AAAACGGATTCTTTATAAATAAATAAATAAATATAA [XGTACX_negctrl_site157],6.15
8,AATACATACACAAATACACACACAAATACATACACA [CACACA_site8134],7.26
9,TTTTTTTTTTTTTTTACACACAAATGTATACTATAT [CACACA_site1787],6.6
10,TATTAAATATTCATATGTACATATAGTTTATAAATT [XGTACX_site7455],6.54
11,TTTTAAAAATTAAAAAAATTAAATGTAAAAAAATGA [CACACA_negctrl_site861],6.27
12,ATATATGTATATGTGTGTACATATATGTTTATTATT [XGTACX_site6043],6.49
13,GGACTTAAATAAAATGGTACAGAATTTATATATATT [XGTACX_site8214],6.24
14,TAATGGAATACATATAGTACATAATATTACATACAT [XGTACX_site5737],6.41
15,GTGTCAAATTTTATAACACACAAAAGATTATATAAG [CACACA_site4086],6.42
16,CCAATATATACATATATATAGTTATATATATTTCCT [TGCATGCA_negctrl_site38],6.31
17,TTTTTTTTTTTTTATTGTACTAGTAGATATATATAC [XGTACX_site3463],6.16
18,TCCTCGCGTAATACTTTTCAAATAAAAAAAATAAAA [TGCATGCA_negctrl_site403],6.24
19,ATTAAAAATTAATATAAACACACAAAAATTAATAAA [CACACA_site8019],6.71
20,AAACATACTTGATGCAGTACACATTATAAGCACATA [XGTACX_site3359],6.62
21,TATATAACATAATATACACACATTATGTGCGTAATT [CACACA_site4073],9.08
22,GTATATCATTTTGGGGTGCTTAAAAATAATGAATAC,7

row,Sequence,gcPBM binding intensity (ln)
1,TTTTTTTTTTTTTATTGTACAAAGGTATAAAATAAT [XGTACX_site2396],6.63
2,CATATGTATATGACTACACACAAGGGTGTACAGATA [CACACA_site4776],6.37
3,TATTATTCTGTATTTGCATGTGATCATATATATGTA [TGCATGCA_site1053],7.17
4,AAACAAAAAAGTAAGAAAAGGGATGATTGGATCCAA [CACACA_negctrl_site1230],6.28
5,AGATATTATAATTAATGTACAAAAAGAAAAAATAGA [XGTACX_site8964],6.97
6,CATACATACAGACACACACACATATATATATATATA [CACACA_site2920],9.44
7,AACATAAAAATGAACATACACACATATATATATATA [CACACA_site2497],9.2
8,ATAAAAATACAGTTAACACACATGTGGATATATATG [CACACA_site3771],7.31
9,ATTTATTCATAGACAACAAGAAAAAAAAAAAAAATT [CACACA_negctrl_site1168],6.12
10,AGTTTTCCATGTTAATGTACTTAACAATACCATAAT [XGTACX_site209],6.97
11,TATATCCATATTGTATGTACACATATAATACCAATG [XGTACX_site7230],6.4
12,GTATTATCTTTTAATAGTACATATTTTTTTGAAACA [XGTACX_site4050],5.98
13,CATATAATATTTGAAACTATATATAAATATAAGGTA [TGCATGCA_negctrl_site19],6.2
14,AATATATTTTTATATTGTACAAAAGAAAAAAAATAT [XGTACX_site1689],6.89
15,TTTTTAATTTATTAAGAAGTAAAGAATAACTCTTTT [TGCATGCA_negctrl_site101],5.57
16,AAACATTAAAATAACTCACACATTTTTCTAGTCTTC [CACACA_site4612],6.19
17,ATATAATGATAATATTGTACATGTTATATTTCAATA [XGTACX_site8645],6.36
18,ATATATTTAATATTCACACATAATTATTTTTACTCT [CACACA_site5438],6.68
19,TTGTAATATCTTGTCACACATATATATATATATATA [CACACA_site4937],9.39
20,TATAGATAAGAATATGCACACATTTTATTTTTTTTT [CACACA_site1982],9.62
21,TGATTAAAAGAGGGAAAAAAAAAAAAAAAAAAAAAA [CACACA_negctrl_site896],6.29
22,TTCTTTTTTAAACACACACACACAAGAAAATATATA [CACACA_site5680],7.18

row,Sequence,gcPBM binding intensity (ln)
1,TGACGAAAAAAAAGGGTGCTTAGTATAACTTTAAAG,6.1
2,TATAAAGGTGAAATTTGTACATAGTCATTTTTTAAT [XGTACX_site4811],6.54
3,TCGACAAATGTATATACACACATTTGTAACATAAAT [CACACA_site560],6.57
4,ATATATATATATATATGTACTTAATATTTCTTATTT [XGTACX_site6206],9.15
5,TTATTCAGAAAAAAAAAAAAAAAAAAAAAAAAAAAA [CACACA_negctrl_site1662],6.2
6,GAGAAGACATTACACAGTACCCAGGAAATCTACGGA [XGTACX_site1993],6.15
7,ATATGTAAAGAAAAGTAAACACTAATTTTAAACAAT [CACACA_negctrl_site11],6.41
8,TATATATATGTGCAGTGTACTTTTTTTTTCTGTAAG [XGTACX_site3424],7.11
9,ATTTTTAATATTATTACACACACTAATAAAAAAAAA [CACACA_site8265],6.48
10,TTTTTTTTAATTGTGATACGTATATTATTTTTTGAT [TGCATGCA_negctrl_site318],6.43
11,ATATAATTATATAAATGTACTCATTCGTTATTTTGC [XGTACX_site6132],6.16
12,TATATTAAGTATAAGACACACATATAGTAATAGAAA [CACACA_site5176],6.34
13,TTATAAAAAAAAATAACACACAGACATAAGAATAAA [CACACA_site9383],6.84
14,AAATATAATAATAATTTAAGAATCTAATATTTTATA [CACACA_negctrl_site831],5.69
15,TACTATATCGATACCAGTACAGATTTATAAATAATA [XGTACX_site7491],6.31
16,ATATAACTTTTCTTAACACACAAAAAACAAAAATAA [CACACA_site2380],6.91
17,AAGTGTCAAAGTTACACACACAAACTTGTCATTTTT [CACACA_site837],6.59
18,GGTATACATATTAAATGTACATATTTTAACAATAAG [XGTACX_site4868],6.32
19,ATTTTTTTTTTAAAATGTACATGAGAAATTGTATAT [XGTACX_site425],6.44
20,TTTCTTATATAAGTGTACTAAAATATATATATGCAA [GTGCAC_negctrl_site546],6.64
21,TAACATAATATAGACACACACATGTACATATGCCAA [CACACA_site1842],6.55
22,TATATTATTAATTAAGCACACATTATTTTTATAATA [CACACA_site3982],6.37
